{"source": "paper PMC4336329", "about": "(PLoS ONE, 2015)", "note": "Among all 310,000 compounds or so, about 14,000 (4.5%) showed an effect of 50% or more. The effect is printed as a negative number. The list shows a part of the results.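 Further: peak tail current of the secondary pulse compared with the same well before compound.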"}
{"target": "human ether-à-go-go-related gene (hERG) potassium channel (human, UniProt Q12809)", "sequence (Q12809 whole entry, looked up)": "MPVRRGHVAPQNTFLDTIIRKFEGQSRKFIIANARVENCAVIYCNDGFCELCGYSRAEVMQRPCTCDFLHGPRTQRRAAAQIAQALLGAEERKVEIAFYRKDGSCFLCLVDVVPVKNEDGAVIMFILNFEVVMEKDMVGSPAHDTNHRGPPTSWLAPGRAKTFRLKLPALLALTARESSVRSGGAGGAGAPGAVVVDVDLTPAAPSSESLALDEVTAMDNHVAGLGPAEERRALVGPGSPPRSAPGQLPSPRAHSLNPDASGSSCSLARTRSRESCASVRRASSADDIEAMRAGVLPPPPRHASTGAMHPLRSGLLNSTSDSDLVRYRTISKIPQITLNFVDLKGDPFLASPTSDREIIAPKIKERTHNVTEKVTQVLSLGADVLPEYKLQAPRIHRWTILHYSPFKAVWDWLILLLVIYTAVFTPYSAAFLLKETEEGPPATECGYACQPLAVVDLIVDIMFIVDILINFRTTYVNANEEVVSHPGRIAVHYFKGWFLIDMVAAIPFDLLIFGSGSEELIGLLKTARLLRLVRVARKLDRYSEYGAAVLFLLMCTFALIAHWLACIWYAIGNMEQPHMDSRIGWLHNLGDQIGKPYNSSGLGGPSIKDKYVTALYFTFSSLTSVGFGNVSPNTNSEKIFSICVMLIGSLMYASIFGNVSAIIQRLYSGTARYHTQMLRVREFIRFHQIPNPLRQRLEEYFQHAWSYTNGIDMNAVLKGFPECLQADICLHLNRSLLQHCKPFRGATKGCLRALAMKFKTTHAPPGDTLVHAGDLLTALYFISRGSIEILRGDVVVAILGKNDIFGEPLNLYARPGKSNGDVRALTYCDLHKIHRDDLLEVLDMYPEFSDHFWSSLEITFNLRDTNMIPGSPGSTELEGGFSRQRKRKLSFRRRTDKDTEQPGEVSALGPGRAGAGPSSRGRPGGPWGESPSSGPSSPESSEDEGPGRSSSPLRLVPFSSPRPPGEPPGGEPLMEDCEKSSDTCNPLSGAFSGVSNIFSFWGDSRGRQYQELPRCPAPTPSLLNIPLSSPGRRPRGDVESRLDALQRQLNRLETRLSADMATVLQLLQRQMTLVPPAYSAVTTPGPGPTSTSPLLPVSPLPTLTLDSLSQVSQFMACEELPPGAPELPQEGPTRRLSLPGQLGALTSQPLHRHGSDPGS", "assay": "primary screen, population patch clamp on CHO cells stably expressing hERG", "units": {"hERG current change (%, negative = inhibition) at 10uM": "%"}}
{"smiles": "COCCNC(=O)C(OC(=O)C1=Cc2ccccc2OC1)C(C)C", "note": "(stereo not shown)", "hERG current change (%, negative = inhibition) at 10uM": 10.3}
{"smiles": "CCOC(=O)N1CCC(NC(=O)c2ccc3c(c2)N=C(CC)c2cc(C)ccc2S3)CC1", "hERG current change (%, negative = inhibition) at 10uM": 4.25}
{"smiles": "CCN(c1cccc(C)c1)S(=O)(=O)c1ccc2[nH]c(=O)c(=O)[nH]c2c1", "hERG current change (%, negative = inhibition) at 10uM": -9.87}
{"smiles": "Cc1ccc(-n2c(C)nc3ncnc(-c4ccccc4)c32)cc1", "hERG current change (%, negative = inhibition) at 10uM": 0.191}
{"smiles": "Cc1ccc(CNC(=O)c2ccc(N3CCC4(CC3)CC(c3ccccc3)=NO4)c(NC(=O)c3ccc(Br)cc3)c2)cc1", "hERG current change (%, negative = inhibition) at 10uM": 31.6}
{"smiles": "CCC(NC(=O)Cc1c(C)c2c(cc(C)c3c(C)c(C)oc32)oc1=O)C(=O)O", "note": "(stereo not shown)", "hERG current change (%, negative = inhibition) at 10uM": 0.0315}
{"smiles": "COc1cccc(CN(C)C(=O)c2ccc(Oc3ccccc3)cc2)c1OC", "hERG current change (%, negative = inhibition) at 10uM": -1.11}
{"smiles": "CS(=O)(=O)N(Cc1ccccc1)c1ccc(C(=O)N2CCc3ccccc3C2)cc1", "hERG current change (%, negative = inhibition) at 10uM": -30}
{"smiles": "COCCNC(=O)COc1ccc(N(C)S(=O)(=O)c2ccc3ccccc3c2)cc1", "hERG current change (%, negative = inhibition) at 10uM": -62}
{"smiles": "COc1cccc(C(C(=O)NC2CCCC2)N(CCC(C)C)C(=O)CCC(=O)Nc2cc(C)on2)c1", "note": "(stereo not shown)", "hERG current change (%, negative = inhibition) at 10uM": -23.3}
{"smiles": "CC(=O)CCc1c(C)c2cc(C)ccc2[nH]c1=O", "hERG current change (%, negative = inhibition) at 10uM": -6.99}
{"smiles": "Fc1ccccc1CSc1ncnc2sc3c(c12)CCCC3", "hERG current change (%, negative = inhibition) at 10uM": 2.75}
{"smiles": "COc1ccc(C(=O)/C=C/c2ccc(N3CCCCC3)c([N+](=O)[O-])c2)c(OC)c1", "hERG current change (%, negative = inhibition) at 10uM": 2.73}
{"smiles": "CC(C)n1c(C(F)(F)F)nc2cc(C(=O)N3CCOCC3)ccc21", "hERG current change (%, negative = inhibition) at 10uM": 16.3}
{"smiles": "COc1ccc(NC(=S)N(CCCN2CCN(C)CC2)Cc2cccs2)cc1", "hERG current change (%, negative = inhibition) at 10uM": -53.4}
{"smiles": "CC1SC(c2ccc(F)cc2)N(CCc2ccccc2)C1=O", "note": "(stereo not shown)", "hERG current change (%, negative = inhibition) at 10uM": -1.76}
{"smiles": "COc1cc(C(=O)N2CCCC(c3nc(-c4cccs4)no3)C2)cc(OC)c1OC", "note": "(stereo not shown)", "hERG current change (%, negative = inhibition) at 10uM": -18.8}
{"smiles": "CCOC(=O)[C@H]1[C@H]2COc3ccc(Cl)cc3[C@@H]2N2C(=O)CN(CC3CCCO3)C(=O)[C@@]12C", "note": "(stereo partly shown)", "hERG current change (%, negative = inhibition) at 10uM": 13.5}
{"smiles": "COC(=O)c1nc(NC(=O)C(C)C)n[nH]1", "hERG current change (%, negative = inhibition) at 10uM": -19.1}
{"smiles": "CC1CCc2c(sc(NC(=O)CSc3ncn[nH]3)c2C#N)C1", "note": "(stereo not shown)", "hERG current change (%, negative = inhibition) at 10uM": 18.4}
{"smiles": "CC(=O)Nc1ccc(S(=O)(=O)N2CCC(C(=O)NCCc3ccc(Cl)cc3)CC2)cc1", "hERG current change (%, negative = inhibition) at 10uM": 5.7}
{"smiles": "O=C(CCc1nc2ccccc2s1)Nc1cccnc1", "hERG current change (%, negative = inhibition) at 10uM": 1.38}
{"smiles": "CC(=O)c1c(O)cc(O)c(C(C)=O)c1O", "hERG current change (%, negative = inhibition) at 10uM": 5.57}
{"smiles": "CCOC(=O)NC(=O)/C(C#N)=N/Nc1c(F)cccc1F", "hERG current change (%, negative = inhibition) at 10uM": 4.72}
{"smiles": "Cc1ccc(F)c([C@H]2C3C=CCC(c4ccccc4)C3C(=O)N2Cc2ccccc2)c1", "note": "(stereo partly shown)", "hERG current change (%, negative = inhibition) at 10uM": 6.8}
{"smiles": "CN(CC(=O)Nc1ccccc1Br)C(=O)c1cccn1C", "hERG current change (%, negative = inhibition) at 10uM": 16.2}
{"smiles": "Cc1oc(-c2cccs2)nc1CS(=O)CC(=O)NCCc1ccccc1", "note": "(stereo not shown)", "hERG current change (%, negative = inhibition) at 10uM": -22.7}
{"smiles": "Cc1cc(NC(=O)COC(=O)CCS(=O)(=O)c2cc(Cl)ccc2Cl)no1", "hERG current change (%, negative = inhibition) at 10uM": 2.03}
{"smiles": "COC(=O)N/N=C/c1ccc(OC(=O)c2ccco2)c(OC)c1", "hERG current change (%, negative = inhibition) at 10uM": 17.8}
{"smiles": "CCN1CCC(NC(=O)Nc2ccc(F)cc2)CC1", "hERG current change (%, negative = inhibition) at 10uM": 7.3}
{"smiles": "CC(OC(=O)C(C)N1C(=O)C2C3C=CC(C4CC34)C2C1=O)C(=O)c1ccccc1", "note": "(stereo not shown)", "hERG current change (%, negative = inhibition) at 10uM": 1.51}
{"smiles": "CCCCN=c1scc(-c2ccc3c(c2)NC(=O)CO3)n1N=C1CCCC1", "hERG current change (%, negative = inhibition) at 10uM": 9.95}
{"smiles": "O=C(NCc1ccc(F)cc1)C1CCCN1S(=O)(=O)c1cccc2nsnc12", "note": "(stereo not shown)", "hERG current change (%, negative = inhibition) at 10uM": -4.49}
{"smiles": "COc1ccc(-c2nc(Cn3c(SCc4ccc(C)cc4)nc4ccncc43)c(C)o2)cc1OC", "hERG current change (%, negative = inhibition) at 10uM": -52}
{"smiles": "O=C(CCc1ccccc1)NN1C(=O)C2C3C=CC(C3)C2C1=O", "note": "(stereo not shown)", "hERG current change (%, negative = inhibition) at 10uM": 16.4}
{"smiles": "CCOc1cc(N2CCOCC2)c(OCC)cc1NC(=O)CN1C(=O)NC(CC(C)C)C1=O", "note": "(stereo not shown)", "hERG current change (%, negative = inhibition) at 10uM": -70.4}
{"smiles": "CCN1C(=O)[C@H]2[C@@H](c3ccc(-c4ccc(Cl)c(Cl)c4)cc3)N[C@@](CC(C)C)(C(=O)OC)[C@H]2C1=O.O=C(O)C(F)(F)F", "hERG current change (%, negative = inhibition) at 10uM": 11.9}
{"smiles": "Cn1c(CCCOc2ccc(Cl)cc2Cl)nnc1SCC(=O)Nc1ccc(F)c(Cl)c1", "hERG current change (%, negative = inhibition) at 10uM": -15.5}
{"smiles": "COc1ccc(OC)c(S(=O)(=O)NC2CCCCNC2=O)c1", "note": "(stereo not shown)", "hERG current change (%, negative = inhibition) at 10uM": 15.2}
{"smiles": "O=C(NC(O)C(=O)c1ccccc1)c1ccccn1", "note": "(stereo not shown)", "hERG current change (%, negative = inhibition) at 10uM": 24.2}
{"smiles": "COc1ccc(C(=O)C2CCN(C(=S)NCCc3ccccc3)CC2)cc1", "hERG current change (%, negative = inhibition) at 10uM": -3.53}
{"smiles": "COC(=O)C(Cc1ccccc1)NC(=O)CSc1nc(C)cc(=O)[nH]1", "note": "(stereo not shown)", "hERG current change (%, negative = inhibition) at 10uM": 6.85}
{"smiles": "Nc1nc(Nc2ccccc2Cl)cc(=O)[nH]1", "hERG current change (%, negative = inhibition) at 10uM": 4.95}
{"smiles": "Cc1ccc(S(=O)(=O)n2cc(-c3ccccc3)c(N)n2)cc1", "hERG current change (%, negative = inhibition) at 10uM": 1.65}
{"smiles": "NNC(=O)COc1ccccc1[N+](=O)[O-]", "hERG current change (%, negative = inhibition) at 10uM": 65.3}
{"smiles": "COc1ccc(-n2c(SCC3CNC(=O)O3)nnc2-c2ccc(Cl)cc2)cc1", "note": "(stereo not shown)", "hERG current change (%, negative = inhibition) at 10uM": -54.8}
{"smiles": "Nc1ccc(SC(F)(F)F)cc1C(=O)c1ccccc1", "hERG current change (%, negative = inhibition) at 10uM": 0.508}
{"smiles": "N#CC1=C(N)Oc2c(c(=O)oc3ccccc23)C1c1ccc(OC(=O)N2CCOCC2)cc1", "note": "(stereo not shown)", "hERG current change (%, negative = inhibition) at 10uM": -17.2}
{"smiles": "O=C(CNC(=O)C1CCCCC1)NCCCO", "hERG current change (%, negative = inhibition) at 10uM": 12.7}
{"smiles": "CCOc1ccccc1CN1CCN(Cc2cccc3nonc23)CC1CCO", "note": "(stereo not shown)", "hERG current change (%, negative = inhibition) at 10uM": -73.3}
{"smiles": "Cn1ncc(Cl)c1C(=O)N1CCN(c2ccccc2)CC1", "hERG current change (%, negative = inhibition) at 10uM": 15.7}
{"smiles": "CCC(=O)Nc1cccc2c1C(=O)N(C)C2=O", "hERG current change (%, negative = inhibition) at 10uM": 2.13}
{"smiles": "Cn1c(CNC(=O)c2ccco2)nnc1SCC(=O)Nc1ccc(Br)cc1F", "hERG current change (%, negative = inhibition) at 10uM": -43.4}
{"smiles": "CCCCNC(=O)C1(NC(=O)Nc2ccc(C)cc2)CCCCC1", "hERG current change (%, negative = inhibition) at 10uM": 15.5}
{"smiles": "COc1ccc(NC(=O)CSc2nnc(C)n2C2CCCCC2)cc1", "hERG current change (%, negative = inhibition) at 10uM": -16.6}
